For this assay, the target named is T1, recombinant human VEGF-A165 (human).
T1 chain: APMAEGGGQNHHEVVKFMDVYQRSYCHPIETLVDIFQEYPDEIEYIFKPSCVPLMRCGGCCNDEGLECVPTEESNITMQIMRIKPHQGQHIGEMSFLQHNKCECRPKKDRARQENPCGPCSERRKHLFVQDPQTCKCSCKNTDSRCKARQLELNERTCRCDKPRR
As to the kind of experiment: kinetic exclusion assay (KinExA); solution equilibrium; VEGF-A165 titrated (48.8 fM-1 nM) against constant aflibercept (2.5, 5.0 and 50.0 pM); equilibrated at 23°C for 5 to 120 hours in PBS, 0.01% Tween-20, 0.02% NaN3, 1 mg/mL BSA, pH 7.4; free inhibitor captured on VEGF-A165-coupled azlactone beads; one-site homogeneous binding model, N-curve global analysis; duplicate. Conditions: both partners purified. On the technique in general: Kinetic exclusion samples the free partner from a solution-phase mixture.

The values below come from publication PMC9617509, “Evaluation of Molecular Properties versus In Vivo Performance of Aflibercept, Brolucizumab, and Ranibizumab in a Retinal Vascular Hyperpermeability Model” (Translational Vision Science & Technology, 2022).

In general, Kd refers to the equilibrium constant for the complex coming apart.

B1: aflibercept (Fc fusion)
chain: SDTGRPFVEMYSEIPEIIHMTEGRELVIPCRVTSPNITVTLKKFPLDTLIPDGKRIIWDSRKGFIISNATYKEIGLLTCEATVNGHLYKTNYLTHRQTNTIIDVVLSPSHGIELSVGEKLVLNCTARTELNVGIDFNWEYPSSKHQHKKLVNRDLKTQSGSEMKKFLSTLTIDGVTRSDQGLYTCAASSGLMTKKNSTFVRVHEK[human IgG1 Fc not printed]
With B1, the Kd came out at 0.172 pM.
